{"source": "the supplement of paper PMC12632987", "binders": {"B1": {"name": "GBRAP_117_2584 (protein)", "chain": "SETEEKVEEIAEEMVELVKETVAKMKEASPEEAEKLRAETEKEVKEKVKEMIELTTREKVLEVLEEESRDLDAEAYFFLFNAAEEAFEEVEEEEREEEEE"}, "B2": {"name": "GBRAP_52_6081 (protein)", "chain": "MKEKIEAIAEAIVEAIAAGDLDGALALMREAIETLSVEEIKEMLVLAAKKVAALGEEQHERFVEALDRVYDLLLEAGISEEDALLIVGDAEAALAKEVAA"}, "B3": {"name": "GBRAP_128_3508 (protein)", "chain": "SMEEVVAKVKELMEKIKEADEETAAELTEEIVELLNSVSLETAEAAVEVILEMLPKLSKEKLLVLADTLEKKRPEVSPEVANLVADIAVEALNEAEEKEE"}, "B4": {"name": "GBRAP_52_6376 (protein)", "chain": "AVEEAARLLRAALEKIIAGGPREEVEALAKEIVKFSEEVIEEAARLVAEEILKLSPEEAEAYLDAAFELADILEEEGLDENIASLIEAEIGKAAYEVSQR"}, "B5": {"name": "GBRAP_128_3489 (protein)", "chain": "ADPEKVERAKRLVREAAESDLETARRLAEEIVELLAESDPETREAIVEAIEEEAPKLSPEHLEVMMDVFDERAPEADPETRQAINDVRVVLGAELLEKEE"}, "B6": {"name": "GBRAP_137_3614 (protein)", "chain": "KTVTITFSEEDGVAIAEIEADESVDQEKLLELIEEVAKKHGVKLVIAQSEDENDITYYLVGTPEKIIAAVKDLIKRLKEELGAEVVLESDGAEELVEKVK"}, "B7": {"name": "GBRAP_160_4323 (protein)", "chain": "EEELEKLEKEIEEIAEEAKEMIEGESAAERITIARVALGEIILEVEENPAVSDELEEQVAKIADAAEATLRANPDLSEEEVKALLEAATKEILELIRKEK"}, "B8": {"name": "GBRAP_11_2721 (protein)", "chain": "KAEKLKALAEKAEALAEKVEKLIKEGPKKEEIKKLAEEVEKLREEAKKIGASEDVLKTLDIAAENLKKAIEDPSNVEEHLKNAAAALRVAAGQLLLEAEE"}, "B9": {"name": "GBRAP_45_5811 (protein)", "chain": "SEELKETREKLEELLKKAKELAEKLKEEDPEKFTPLLELLEEAEKLLKEEPESLEAWERIEELLEEALKLALDSKKASAELLETLLEAANLALEAKELLE"}, "B10": {"name": "GBRAP_128_3379 (protein)", "chain": "MDEEKLERVRELVRRAIESDVEETRELTREVVRLMGTLSPEEREAAAEIVIEALPEFSREKLDAIADTIRELRPELDPLGQELAAEVEVAALNRAEELEE"}, "B11": {"name": "GBRAP_160_4678 (protein)", "chain": "MEEAEELIKEIREEAEEALEMMEGESLEERVAVLRVLTGDIILLLEESPLATDEVIDLADELGDELIAYVRAHPDLTPEELRARLEEVTKKIEEALKESL"}, "B12": {"name": "GBRAP_83_6986 (protein)", "chain": "AEKIVVAAPGDRIEEMVDIVIDLTKEEGYDVSVEILTTKEEWEKVLEAVRRLGEAGIETEITVLVEGATEEEAKEMKEELEEIAKELGVNFKIEVEVLEP"}, "B13": {"name": "GBRAP_150_3936 (protein)", "chain": "DLEELLLLADSVADDLTLALEEGVDRLRALERALELLEDIEEEADPELKKIAREARELVEEAIKLLRAGGPQEEIDKLLREALKLAEELAKELEKKIEEE"}, "B14": {"name": "GBRAP_137_3649 (protein)", "chain": "PNVTIRVKTEGDLVLIEIEFDDPEKAEEVKELILDVAHEHGALAVSVEIKEDGTLEAEIWVPKDKAQALIDALVERLRKELGANVTVIDEDTGEVKEYKA"}, "B15": {"name": "GBRAP_128_3380 (protein)", "chain": "IDEEKLKKVKELVEKAIESDVEETRKLTREVVELMGELTPEEKEKAAEIVIEKLPEFTKEKLEAIADTIREERPKLDPFGQELAAEVEVEALNEAEELEE"}, "B16": {"name": "GBRAP_11_2633 (protein)", "chain": "KKEKIEKAAKLAKEIVKVLEKLLEEGVDNEELQKELKKLIEELKKLVKEIGNKALINDVEVAEELYEEALEDPENREFYIKLLLAQARIIEAELEELLEE"}, "B17": {"name": "GBRAP_128_3412 (protein)", "chain": "SREEIVEKARELLEEMLTADEEEQKKLARELADLILESDLETAEAIAEVILEMLPKFTAKQLDILADALRERRDEFTPEKQNLVADVIVAALNEREELEE"}, "B18": {"name": "GBRAP_160_4634 (protein)", "chain": "DESLEEMKEIIDEYTEIALEYIDEGDLDGALNALRMMTGDLVMEAMEDEKFSDEDVDELDKLGDKAVAEFEAAKDKSKEELKALVEKAAEELKKKVEEKY"}, "B19": {"name": "GBRAP_166_4955 (protein)", "chain": "MLEEVIEETREFIEELAEKMKTANEEEKLELQAEIAERIAEARDAGVSREDILELIGYALEKVKEVGGSVRQFLGAIDIFVDLSEEELDEILERAKEVEA"}, "B20": {"name": "GBRAP_52_6219 (protein)", "chain": "MEEEARRKAEEILETVRERGVEAATELLIELAKELSVEELKLVFEELVRLARESSAEVAEALLEALLKAEDALIAAGVPEEDVADAIAALARVAVEKRAA"}, "B21": {"name": "GBRAP_11_2768 (protein)", "chain": "KKEELKKAAELAEKAAKTVEKLLKEGVDNEELLKEIEELLKELKKLTEKYGNEDMKKLVKIAEELLEEIKKDPENAEEYAKELKATLDVLAGQYLLEAEE"}, "B22": {"name": "GBRAP_78_6693 (protein)", "chain": "EVEELLDKALEHLGKAASILAKMNTPEALDILGKVIDVASTVWEAEEGEADLKELEEALKLLKEALKEAKKIKTEEAKEAAKELEKAIEYLEKAIKLMKK"}, "B23": {"name": "GBRAP_184_5194 (protein)", "chain": "KVLEYEIKAENLEELKEKLKELYEKAKKEKADIYIIVDLKNATKEKIEALMNMLKEIKEKGYAKNIYVLVTGNLTEEQIDLIIKKADEAGVKVTLALDEE"}, "B24": {"name": "GBRAP_11_2687 (protein)", "chain": "KKEKLEEGAKLAEELAKLIEELLKEGVDNEKLLKELEKKLKELEKLTKEYADKASQKLTEDIKETWEEMLKDPEKAEEYAKEMLAGARVLAGDYLLEIEE"}, "B25": {"name": "GBRAP_14_3844 (protein)", "chain": "SEELRKLLLEAVRETVEALRELAPEEYEEKVEEFRERLEKAVEEVLKLGNLEEAERRLIEVAEETVEELFADLPEEERAALRAEAVNTLALKFEEIEEKL"}, "B26": {"name": "GBRAP_160_4090 (protein)", "chain": "MEKVKKLIKEIKEEAERAMKMIEGETIEQRAIIVRGLGGDVIMLLFESGVVSEETEDFADEKFDALVETILANPDLTEEEIKALLKEVVEEIIEKIEEEA"}, "B27": {"name": "GBRAP_11_2920 (protein)", "chain": "EKEKKKEIAKLAEEAAELVERLIEEGVDNEELLKELEKKIKELKELVEEYGDEADKKEVEIIEELWEEALADPENREEYLKQLRAALLVLSGNYLLELEE"}, "B28": {"name": "GBRAP_128_3426 (protein)", "chain": "STEELVARVEELLEAMLTADDEEAAALADEIMELLLAADLATVEAMVEVILAMLPKLTAEKLDILADAFRRHRPLFSPEKQELVAEVEVEALNEAEELEE"}, "B29": {"name": "GBRAP_160_4499 (protein)", "chain": "SETLEKAKKEIEEEAELAIEAASEVSDEDAVKIVEAYFGDIAVYLEEEAKLSEENIDKVMEKADEVVAELKAIPKLTPEQIREAVERFKEEAIAILEEEA"}}, "note": "In all, about 4,500 sequences were measured (“median log2 fold change of GCK-ALFA target abundance (FLAG IP / Myc IP barcode read proportion)”: median about 0.078, lowest 2% from about -0.6 on). The list shows a part of the results."}
{"target": "GABARAP, O95166", "sequence (O95166 whole entry, the tested form may be a part)": "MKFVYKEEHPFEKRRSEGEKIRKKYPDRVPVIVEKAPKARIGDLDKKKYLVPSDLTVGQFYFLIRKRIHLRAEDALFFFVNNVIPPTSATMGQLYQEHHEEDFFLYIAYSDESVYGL", "experiment": "median log2 fold change of GCK-ALFA target abundance (FLAG IP / Myc IP barcode read proportion) (log2 ratio); each designed protein is fused to an ALFA-tag nanobody in HEK293 cells to bring the named protein to FLAG-tagged glucokinase (GCK); Myc marks an untargeted standard; higher = target protein stabilised (more abundant)", "details": "target protein: 3xFLAG-MCP-GCK-ALFA reporter; HEK293 landing pad (RPLP)", "outline": "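Binders fused to an ALFA nanobody were recombined as a library into HEK293 landing-pad cells, which were induced with 2 μg mL^−1 doxycycline and then transfected to express a FLAG-tagged target and a Myc-tagged standard. After 48 h, circular RNA barcodes recovered by anti-FLAG and anti-Myc immunoprecipitation of lysates were reverse transcribed, amplified and sequenced. Each binder's target abundance is the median log2 ratio of FLAG to Myc barcode read proportions, from barcodes present at ≥10^−7 in both replicates, binders carrying ≥3 barcodes per replicate, a 10^−6 pseudocount and pooled replicates.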"}
{"binder": "B1", "median log2 fold change": 0.237}
{"binder": "B2", "median log2 fold change": -0.308}
{"binder": "B3", "median log2 fold change": 0.191}
{"binder": "B4", "median log2 fold change": -0.084}
{"binder": "B5", "median log2 fold change": 0.203}
{"binder": "B6", "median log2 fold change": -0.301}
{"binder": "B7", "median log2 fold change": -0.00831}
{"binder": "B8", "median log2 fold change": 0.0939}
{"binder": "B9", "median log2 fold change": 0.129}
{"binder": "B10", "median log2 fold change": 0.284}
{"binder": "B11", "median log2 fold change": -0.351}
{"binder": "B12", "median log2 fold change": -0.0425}
{"binder": "B13", "median log2 fold change": -0.148}
{"binder": "B14", "median log2 fold change": 0.165}
{"binder": "B15", "median log2 fold change": 0.0893}
{"binder": "B16", "median log2 fold change": -0.0434}
{"binder": "B17", "median log2 fold change": 0.223}
{"binder": "B18", "median log2 fold change": 0.0771}
{"binder": "B19", "median log2 fold change": -0.0229}
{"binder": "B20", "median log2 fold change": 0.2}
{"binder": "B21", "median log2 fold change": 0.117}
{"binder": "B22", "median log2 fold change": -0.41}
{"binder": "B23", "median log2 fold change": -0.212}
{"binder": "B24", "median log2 fold change": 0.232}
{"binder": "B25", "median log2 fold change": 0.208}
{"binder": "B26", "median log2 fold change": -0.277}
{"binder": "B27", "median log2 fold change": 0.137}
{"binder": "B28", "median log2 fold change": 0.232}
{"binder": "B29", "median log2 fold change": 0.283}
